Assay results: the supplement of paper PMC3334620
The full ranking holds about 33,000 sequences; the median of “E-score (-0.5 to 0.5)” is about -0.043, and the highest 2% start at about 0.37. The list shows a part of the results.

What follows are sequences tested against T1, Upc2 (UniProt Q12151) (assay: PBM E-score (8-mer binding enrichment) (E-score (-0.5 to 0.5)); higher = stronger / more preferred TF binding; most listed sequences are background and not binding sites). Settings: protein concentration: 200 nM; construct: GST-full length.
T1 sequence: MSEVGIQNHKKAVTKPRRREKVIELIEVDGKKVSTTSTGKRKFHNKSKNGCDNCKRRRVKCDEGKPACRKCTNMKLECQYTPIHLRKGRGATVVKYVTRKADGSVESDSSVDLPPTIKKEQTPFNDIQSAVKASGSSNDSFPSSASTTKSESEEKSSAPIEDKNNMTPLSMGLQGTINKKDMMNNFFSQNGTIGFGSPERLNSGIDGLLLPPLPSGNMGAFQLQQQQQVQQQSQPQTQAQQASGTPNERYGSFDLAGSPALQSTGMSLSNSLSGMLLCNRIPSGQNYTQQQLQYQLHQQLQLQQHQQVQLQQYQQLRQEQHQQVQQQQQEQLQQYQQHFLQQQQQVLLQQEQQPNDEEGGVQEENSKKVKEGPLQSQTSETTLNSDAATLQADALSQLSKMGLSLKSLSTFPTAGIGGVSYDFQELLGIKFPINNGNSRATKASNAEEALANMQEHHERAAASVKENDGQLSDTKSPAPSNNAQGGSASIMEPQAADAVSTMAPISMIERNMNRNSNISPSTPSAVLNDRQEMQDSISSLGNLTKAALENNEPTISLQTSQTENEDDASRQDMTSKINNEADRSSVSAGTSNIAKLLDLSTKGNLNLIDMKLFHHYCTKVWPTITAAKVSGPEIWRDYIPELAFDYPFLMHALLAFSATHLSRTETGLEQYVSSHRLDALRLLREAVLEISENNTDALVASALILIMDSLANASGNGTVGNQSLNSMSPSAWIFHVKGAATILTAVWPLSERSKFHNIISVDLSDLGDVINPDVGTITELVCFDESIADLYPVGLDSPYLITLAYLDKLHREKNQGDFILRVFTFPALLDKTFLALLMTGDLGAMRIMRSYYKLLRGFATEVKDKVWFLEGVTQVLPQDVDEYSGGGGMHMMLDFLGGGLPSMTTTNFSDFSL
Procedure, shortened: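 Using PURExpress in vitro transcription/translation, GST-tagged yeast transcription factors were made in full-length or DNA-binding-domain form. These were applied at about 100-200 nM to double-stranded universal all-10-mer Agilent arrays, and bound protein was detected with fluorescent anti-GST. Scans were normalised with masliner before the Universal PBM Analysis Suite assigned E-scores to ungapped eight-base words pooled with their reverse complements.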
For AAAAAACA, the “PBM E-score” value was -0.00292.
With ACCCGGAC the “PBM E-score” value was -0.0931.
With ATTATCTA the “PBM E-score” value was 0.0661.
With GTTATGCA the “PBM E-score” value was -0.225.
With CGTTCGGC the “PBM E-score” value was 0.146.
With CGTAACTA the “PBM E-score” value was 0.185.
In the case of AAAAGAGC, the “PBM E-score” value was 0.076.
AGTATATC was tested, and the “PBM E-score” value was 0.0604.
ATGTAGGA was tested, and the “PBM E-score” value was -0.215.
For CGGTTTTC, the “PBM E-score” value was 0.249.
With ATCGACAT the “PBM E-score” value was 0.0418.
ACCTCATC was tested, and the “PBM E-score” value was -0.133.
In the case of CGGGCTTA, the “PBM E-score” value was -0.127.
In the case of CGGACCCG, the “PBM E-score” value was 0.184.
With GCTGCACC the “PBM E-score” value was 0.0672.
In the case of CGCATTAC, the “PBM E-score” value was 0.18.
In the case of CTACCATC, the “PBM E-score” value was 0.00378.
AGAGCTTA was tested, and the “PBM E-score” value was -0.0113.
With ATCTCATA the “PBM E-score” value was -0.0348.
For CCCGGAAC, the “PBM E-score” value was 0.158.
For AACTGTAA, the “PBM E-score” value was 0.103.
For GAGGCCGC, the “PBM E-score” value was -0.162.
With TAGCCCAA the “PBM E-score” value was -0.195.
With CAACAAAC the “PBM E-score” value was 0.0741.
With GTGCACAC the “PBM E-score” value was -0.24.
With CTAATCCA the “PBM E-score” value was -0.29.
With GAACTATC the “PBM E-score” value was 0.0433.
In the case of CAGAACCG, the “PBM E-score” value was -0.0496.
With CCGCCACC the “PBM E-score” value was -0.157.
For ACTCTGCG, the “PBM E-score” value was -0.00036.
For ATAGCGCG, the “PBM E-score” value was 0.0919.
In the case of ACACTCTG, the “PBM E-score” value was 0.00062.
For CTGGTACC, the “PBM E-score” value was -0.0969.
With TTCGCCAA the “PBM E-score” value was 0.0392.
ACAGTGAC was tested, and the “PBM E-score” value was -0.0248.
CATCGGCG was tested, and the “PBM E-score” value was -0.201.
With CGTCAATA the “PBM E-score” value was -0.0786.
For ATGCGGAC, the “PBM E-score” value was 0.0379.
GCTTCTCC was tested, and the “PBM E-score” value was -0.102.
ATTGCCAG was tested, and the “PBM E-score” value was -0.0715.
For AATACCAC, the “PBM E-score” value was -0.0925.
In the case of ACTGTCCT, the “PBM E-score” value was -0.136.
For AATTTCGG, the “PBM E-score” value was 0.0667.
AAATTTTG was tested, and the “PBM E-score” value was -0.171.
In the case of AGCACTGC, the “PBM E-score” value was -0.177.
In the case of AAGTCAGC, the “PBM E-score” value was 0.0182.
For AGACTCGA, the “PBM E-score” value was -0.181.
With ATTTGGCG the “PBM E-score” value was 0.161.
GGTACCAC was tested, and the “PBM E-score” value was -0.18.
With GCATAAGA the “PBM E-score” value was 0.0201.
In the case of CTCTGGAC, the “PBM E-score” value was -0.0919.
CTCGGCTA was tested, and the “PBM E-score” value was 0.125.
For ATAGTACC, the “PBM E-score” value was -0.084.
In the case of AAGAGTAT, the “PBM E-score” value was -0.111.
In the case of AGCACAGC, the “PBM E-score” value was 0.0283.
In the case of AGGCCGAC, the “PBM E-score” value was -0.156.
With TTGGCCAA the “PBM E-score” value was -0.303.
In the case of TAACTCTA, the “PBM E-score” value was -0.0512.
In the case of GCGCTAGA, the “PBM E-score” value was -0.0391.
In the case of CAGAACAC, the “PBM E-score” value was -0.0983.
TGGCTTAA was tested, and the “PBM E-score” value was 0.0926.
In the case of AAGGTTCA, the “PBM E-score” value was -0.145.
TCGCTAGA was tested, and the “PBM E-score” value was 0.0467.
ATGGATCA was tested, and the “PBM E-score” value was -0.271.
For AAGCCTGG, the “PBM E-score” value was -0.346.
With CCTGTGGC the “PBM E-score” value was -0.267.
In the case of CAAATCCC, the “PBM E-score” value was -0.0579.
For CTGTCCGA, the “PBM E-score” value was 0.172.
CACAAGAC was tested, and the “PBM E-score” value was -0.127.
AACAGGCT was tested, and the “PBM E-score” value was -0.151.
In the case of CATATCCA, the “PBM E-score” value was 0.0239.
With ACCGAACG the “PBM E-score” value was 0.269.
For GCGCGAAA, the “PBM E-score” value was -0.00414.
For GTAAAAAC, the “PBM E-score” value was 0.175.
In the case of GCTCCCTA, the “PBM E-score” value was -0.164.
For CCTAAACG, the “PBM E-score” value was 0.472.
GCTCGGAA was tested, and the “PBM E-score” value was 0.179.
AGTTTTAA was tested, and the “PBM E-score” value was 0.0567.
For AGGCTACG, the “PBM E-score” value was 0.105.
In the case of GACTTCGC, the “PBM E-score” value was 0.162.
CTGTTTGA was tested, and the “PBM E-score” value was -0.0401.
CGCTGTTC was tested, and the “PBM E-score” value was 0.0477.
With AATGTAGG the “PBM E-score” value was -0.245.
In the case of CCCTAGAC, the “PBM E-score” value was -0.128.
AGTCCCTG was tested, and the “PBM E-score” value was -0.129.
With AGCTGTGG the “PBM E-score” value was -0.304.
